Assay results: patent publication US20260347469 (published 2026)

B1: A6 (protein)
chain: [about 150 residues omitted]GGGGSGGGGSGGGGSREGPELSPDDPAGLLDLRQGMFAQLVAQNVLLIDGPLSWYSDPGLAGVSLTGGLSYKEDTKELVVAKAGVYYVFFQLELRRVVAGEGSGSVSLALHLQPLRSAAGAAALALTVDLPPASSEARNSAFGFQGRLLHLSAGQRLGVHLHTEARARHAWQLTQGATVLGLFRVTPEIPAGLPSPRSEGGGGSGGGGSGGGGSREGPELSPDDPAGLLDLRQGMFAQLVAQNVLLIDGPLSWYSDPGLAGVSLTGGLSYKEDTKELVVAKAGVYYVFFQLELRRVVAGEGSGSVSLALHLQPLRSAAGAAALALTVDLPPASSEARNSAFGFQGRLLHLSAGQRLGVHLHTEARARHAWQLTQGATVLGLFRVTPEIPAGLPSPRSEGGGGSGGGGSGGGGSREGPELSPDDPAGLLDLRQGMFAQLVAQNVLLIDGPLSWYSDPGLAGVSLTGGLSYKEDTKELVVAKAGVYYVFFQLELRRVVAGEGSGSVSLALHLQPLRSAAGAAALALTVDLPPASSEARNSAFGFQGRLLHLSAGQRLGVHLHTEARARHAWQLTQGATVLGLFRVTPEIPAGLPSPRSE
B2: A5 (protein)
chain: [about 200 residues omitted]GGGGSGGGGSGGGGSREGPELSPDDPAGLLDLRQGMFAQLVAQNVLLIDGPLSWYSDPGLAGVSLTGGLSYKEDTKELVVAKAGVYYVFFQLELRRVVAGEGSGSVSLALHLQPLRSAAGAAALALTVDLPPASSEARNSAFGFQGRLLHLSAGQRLGVHLHTEARARHAWQLTQGATVLGLFRVTPEIPAGLPSPRSEGGGGSGGGGSGGGGSREGPELSPDDPAGLLDLRQGMFAQLVAQNVLLIDGPLSWYSDPGLAGVSLTGGLSYKEDTKELVVAKAGVYYVFFQLELRRVVAGEGSGSVSLALHLQPLRSAAGAAALALTVDLPPASSEARNSAFGFQGRLLHLSAGQRLGVHLHTEARARHAWQLTQGATVLGLFRVTPEIPAGLPSPRSEGGGGSGGGGSGGGGS[about 150 residues omitted]
B3: A9 (protein)
chain: [about 150 residues omitted]GGGGSGGGGSGGGGSARASPGSAASPRLREGPELSPDDPAGLLDLRQGMFAQLVAQNVLLIDGPLSWYSDPGLAGVSLTGGLSYKEDTKELVVAKAGVYYVFFQLELRRVVAGEGSGSVSLALHLQPLRSAAGAAALALTVDLPPASSEARNSAFGFQGRLLHLSAGQRLGVHLHTEARARHAWQLTQGATVLGLFRVTPEIPAGLPSPRSEGGGGSGGGGSGGGGSARASPGSAASPRLREGPELSPDDPAGLLDLRQGMFAQLVAQNVLLIDGPLSWYSDPGLAGVSLTGGLSYKEDTKELVVAKAGVYYVFFQLELRRVVAGEGSGSVSLALHLQPLRSAAGAAALALTVDLPPASSEARNSAFGFQGRLLHLSAGQRLGVHLHTEARARHAWQLTQGATVLGLFRVTPEIPAGLPSPRSEGGGGSGGGGSGGGGSARASPGSAASPRLREGPELSPDDPAGLLDLRQGMFAQLVAQNVLLIDGPLSWYSDPGLAGVSLTGGLSYKEDTKELVVAKAGVYYVFFQLELRRVVAGEGSGSVSLALHLQPLRSAAGAAALALTVDLPPASSEARNSAFGFQGRLLHLSAGQRLGVHLHTEARARHAWQLTQGATVLGLFRVTPEIPAGLPSPRSE

The binders below were run against 4-1BB-Fc (human, UniProt Q07011) (assay: BLI, 24C, avidity).
Chain of UniProt Q07011 (Q07011 24-186): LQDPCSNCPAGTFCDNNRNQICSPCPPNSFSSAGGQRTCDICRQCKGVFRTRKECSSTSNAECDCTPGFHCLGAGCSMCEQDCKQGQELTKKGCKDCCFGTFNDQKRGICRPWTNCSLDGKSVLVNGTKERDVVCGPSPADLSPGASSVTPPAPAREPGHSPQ

Kd, < 0.01 nM:
B1
B2
B3
